Experimental findings from patent US20060263361A1 are described below.

Some values that stand alone complete this part of the results.

In this experiment the target is recombinant KIR2DL3 protein (entire extracellular domain, produced in E. coli, immobilized) (human) (UniProt P43628). Kind of experiment: Biacore, KIR2DL3 chip; second Ab injected alone.
Chain of UniProt P43628 (P43628 22-245): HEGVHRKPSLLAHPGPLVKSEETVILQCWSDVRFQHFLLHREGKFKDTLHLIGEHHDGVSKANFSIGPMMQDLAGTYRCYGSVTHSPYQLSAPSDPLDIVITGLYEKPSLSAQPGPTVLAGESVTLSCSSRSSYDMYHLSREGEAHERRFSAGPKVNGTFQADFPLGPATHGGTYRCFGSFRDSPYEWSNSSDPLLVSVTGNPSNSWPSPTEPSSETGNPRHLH

Consider “monoclonal antibody DF200 produced by hybridoma DF200”, for which the RU, second antibody alone came out at 1140 RU (after first antibody 1-4 F1), 790 RU (after first antibody 1-6 F1), 800 RU (after first antibody 1-6 F5) and 770 RU (after first antibody 1-7 F9).
